Experiment [1] addresses programmed cell death-1 (PD-1), endogenous (human (endogenous in PBMCs and Jurkat T cells)) (UniProt Q15116). Kind of experiment: co-IP; IP of endogenous USP24 (PBMCs stimulated with anti-CD3/CD28; Jurkat T cells stimulated with PMA/ionomycin 6 h) or of endogenous PD-1 (Jurkat T cells), Western blot; IP buffer 50 mM tris-HCl pH 7.5, 150 mM NaCl, 1% NP-40, 5 mM EDTA, 4°C; IL-6 treatment increased the interaction (fig. S4D).

Amino acid sequences for entries named in this document (tags omitted). A change or cut given only in a name is not applied to a line headed by its entry. Residues count along the entry.
UniProt Q15116, residues 25-288: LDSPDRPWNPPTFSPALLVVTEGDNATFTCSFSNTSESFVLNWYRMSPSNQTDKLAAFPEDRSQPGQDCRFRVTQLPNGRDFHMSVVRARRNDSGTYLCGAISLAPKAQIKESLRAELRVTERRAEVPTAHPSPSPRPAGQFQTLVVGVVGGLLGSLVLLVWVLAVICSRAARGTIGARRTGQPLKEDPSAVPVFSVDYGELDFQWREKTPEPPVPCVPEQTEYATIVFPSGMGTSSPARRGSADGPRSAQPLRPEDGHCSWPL
UniProt Q9UPU5: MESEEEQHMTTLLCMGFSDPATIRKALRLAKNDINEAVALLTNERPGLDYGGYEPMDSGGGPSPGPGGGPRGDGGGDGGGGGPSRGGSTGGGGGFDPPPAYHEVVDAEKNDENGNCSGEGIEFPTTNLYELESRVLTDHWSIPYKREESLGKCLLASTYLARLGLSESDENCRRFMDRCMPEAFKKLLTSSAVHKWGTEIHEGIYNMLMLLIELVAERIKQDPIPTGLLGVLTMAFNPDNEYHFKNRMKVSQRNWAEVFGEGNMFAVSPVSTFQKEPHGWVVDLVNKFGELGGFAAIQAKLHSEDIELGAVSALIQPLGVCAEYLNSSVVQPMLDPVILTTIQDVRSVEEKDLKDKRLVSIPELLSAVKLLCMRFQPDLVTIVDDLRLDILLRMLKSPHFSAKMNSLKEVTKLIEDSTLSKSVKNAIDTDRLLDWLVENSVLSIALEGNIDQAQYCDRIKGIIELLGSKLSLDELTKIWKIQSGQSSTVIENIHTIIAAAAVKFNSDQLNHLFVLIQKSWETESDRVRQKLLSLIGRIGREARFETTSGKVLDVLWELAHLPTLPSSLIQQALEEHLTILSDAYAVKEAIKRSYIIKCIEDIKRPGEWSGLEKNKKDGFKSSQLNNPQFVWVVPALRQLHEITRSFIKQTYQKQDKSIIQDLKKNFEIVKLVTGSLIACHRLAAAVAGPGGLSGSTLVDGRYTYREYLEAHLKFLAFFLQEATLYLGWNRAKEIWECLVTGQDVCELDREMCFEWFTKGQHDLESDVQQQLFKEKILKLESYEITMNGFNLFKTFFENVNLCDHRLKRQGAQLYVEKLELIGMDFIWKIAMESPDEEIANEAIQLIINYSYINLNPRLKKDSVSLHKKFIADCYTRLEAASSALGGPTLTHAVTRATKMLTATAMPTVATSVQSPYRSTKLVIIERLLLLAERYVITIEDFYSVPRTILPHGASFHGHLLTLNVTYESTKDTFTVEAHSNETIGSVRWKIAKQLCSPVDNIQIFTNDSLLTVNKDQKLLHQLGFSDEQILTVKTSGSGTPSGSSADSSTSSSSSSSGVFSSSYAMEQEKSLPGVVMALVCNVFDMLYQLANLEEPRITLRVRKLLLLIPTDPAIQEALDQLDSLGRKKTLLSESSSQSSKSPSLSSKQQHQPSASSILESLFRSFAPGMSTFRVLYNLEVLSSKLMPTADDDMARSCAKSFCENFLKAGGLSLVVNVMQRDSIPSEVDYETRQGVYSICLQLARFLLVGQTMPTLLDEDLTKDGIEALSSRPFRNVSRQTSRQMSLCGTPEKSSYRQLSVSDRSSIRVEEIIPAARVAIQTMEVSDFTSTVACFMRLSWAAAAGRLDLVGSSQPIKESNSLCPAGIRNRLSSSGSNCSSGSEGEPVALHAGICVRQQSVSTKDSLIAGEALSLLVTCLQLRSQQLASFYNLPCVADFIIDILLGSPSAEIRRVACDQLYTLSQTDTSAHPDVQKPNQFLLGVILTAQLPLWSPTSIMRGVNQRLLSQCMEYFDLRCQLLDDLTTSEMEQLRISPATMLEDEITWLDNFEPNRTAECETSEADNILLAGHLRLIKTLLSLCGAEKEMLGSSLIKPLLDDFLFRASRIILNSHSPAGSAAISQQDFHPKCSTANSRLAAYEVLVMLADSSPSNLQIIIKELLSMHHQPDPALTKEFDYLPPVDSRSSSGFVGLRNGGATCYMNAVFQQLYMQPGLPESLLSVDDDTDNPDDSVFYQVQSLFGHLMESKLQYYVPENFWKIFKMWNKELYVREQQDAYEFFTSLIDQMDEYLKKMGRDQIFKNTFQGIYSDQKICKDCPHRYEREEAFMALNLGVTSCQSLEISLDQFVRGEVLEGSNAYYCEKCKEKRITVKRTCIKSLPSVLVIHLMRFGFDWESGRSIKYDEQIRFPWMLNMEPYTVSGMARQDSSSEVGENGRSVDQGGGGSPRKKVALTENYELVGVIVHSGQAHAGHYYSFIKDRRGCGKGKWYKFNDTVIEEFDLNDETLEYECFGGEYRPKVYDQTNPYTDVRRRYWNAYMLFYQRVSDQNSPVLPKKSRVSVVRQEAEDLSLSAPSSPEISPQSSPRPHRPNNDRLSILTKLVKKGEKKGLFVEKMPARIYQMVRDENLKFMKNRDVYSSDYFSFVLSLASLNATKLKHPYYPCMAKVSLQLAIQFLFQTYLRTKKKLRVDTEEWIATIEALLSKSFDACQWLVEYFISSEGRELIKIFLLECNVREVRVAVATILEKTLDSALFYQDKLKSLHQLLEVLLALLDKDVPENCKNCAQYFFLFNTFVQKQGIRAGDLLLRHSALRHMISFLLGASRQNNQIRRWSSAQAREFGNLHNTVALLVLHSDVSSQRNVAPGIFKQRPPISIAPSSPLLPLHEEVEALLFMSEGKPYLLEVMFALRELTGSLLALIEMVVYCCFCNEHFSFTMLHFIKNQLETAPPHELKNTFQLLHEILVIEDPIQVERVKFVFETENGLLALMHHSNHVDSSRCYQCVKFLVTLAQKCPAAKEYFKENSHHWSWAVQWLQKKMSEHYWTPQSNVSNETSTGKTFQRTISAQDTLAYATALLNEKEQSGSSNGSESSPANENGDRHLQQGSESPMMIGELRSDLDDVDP

Experiment [2] addresses ubiquitin-specific peptidase 24 (USP24), endogenous (human (endogenous in PBMCs and Jurkat T cells)) (UniProt Q9UPU5). The description is as above.
Experiment [3] addresses programmed cell death-1 (PD-1), endogenous (human (endogenous in PBMCs and Jurkat T cells)) (UniProt Q15116). Kind of experiment: co-IP; Jurkat T cells ectopically transduced with GFP-USP24 (fig. S3A); IP-Western.
The target in experiment [4] is GFP-PD-1 (WT-PD-1) (UniProt Q15116). Put plainly: co-IP; HEK293 cells transfected with GFP-PD-1 (WT-PD-1) and USP24 constructs; IP of GFP-PD-1, Western blot (fig. S3B, Fig. 3E).

No constants are given. Whether binding was seen depends on the method and setting. Binding seen in cells or lysates may run through a third protein. Some binding calls cover weakened binding; strength is not graded here.

Consider “ubiquitin-specific peptidase 24 (USP24), endogenous (from UniProt Q9UPU5 1-2620) (enzyme)”, for which, in experiment [1], the binding result is given as “binds”.
“programmed cell death-1 (PD-1), endogenous (from UniProt Q15116 25-288) (receptor)”: the binding entry in experiment [2] is on record as “binds”.
Regarding “GFP-USP24 (wild-type USP24, USP24-WT) (from UniProt Q9UPU5 1-2620) (enzyme)”, the binding result in experiment [3] and in experiment [4] was “binds” each time.
On to “USP24 C-terminal deletion construct (USP24-ΔC, amino acids 1 to 2050) (from UniProt Q9UPU5 1-2050) (domain or fragment)”, for which the binding result in experiment [4] is recorded as “no binding”.

(Values after paper PMC12002121.)
